# Experimental data taken from the supplement of paper PMC8728848.
# The list shows a part of the results.
# Legend:
# Assay in all cases: glycan array binding signal (z-score within array); higher = stronger binding
# Settings in all cases: glycan notation: IUPAC condensed, linker removed
# Fuc(a1-2)Gal = biological target: Fuc(a1-2)Gal
# How it was run: (§1)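 Arrays were curated from the Consortium for Functional Glycomics database, 3228 in total, and kept only where the protein sequence was available. Binding is expressed as a within-array Z-score. This score was averaged across arrays of the same protein sequence at different concentrations or buffers and across linkers, and negative values can be read as non-binding.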
# Fuc(a1-2)Gal(b1-3)GalNAc = biological target: Fuc(a1-2)Gal(b1-3)GalNAc
# How it was run: as §1
# [1] = biological target: Fuc(a1-2)Gal(b1-3)GalNAc(b1-3)Gal
# How it was run: as §1
# [2] = biological target: Fuc(a1-2)Gal(b1-3)GalNAc(b1-3)Gal(a1-4)Gal(b1-4)Glc
# How it was run: as §1
# [3] = biological target: Fuc(a1-2)Gal(b1-3)GalNAc(b1-4)[Neu5Ac(a2-3)]Gal(b1-4)Glc
# How it was run: as §1
# Fuc(a1-2)Gal(b1-3)GlcNAc = biological target: Fuc(a1-2)Gal(b1-3)GlcNAc
# How it was run: as §1
# [4] = biological target: Fuc(a1-2)Gal(b1-3)GlcNAc(b1-2)Man(a1-3)[Fuc(a1-2)Gal(b1-3)GlcNAc(b1-2)Man(a1-6)]Man(b1-4)GlcNAc(b1-4)GlcNAc
# How it was run: as §1
# [5] = biological target: Fuc(a1-2)Gal(b1-3)GlcNAc(b1-3)Gal(b1-4)Glc
# How it was run: as §1
# [6] = biological target: Fuc(a1-2)Gal(b1-3)GlcNAc(b1-3)[Gal(b1-4)[Fuc(a1-3)]GlcNAc(b1-6)]Gal(b1-4)Glc
# How it was run: as §1
# [7] = biological target: Fuc(a1-2)Gal(b1-3)[Fuc(a1-4)]GlcNAc
# How it was run: as §1
# [8] = biological target: Fuc(a1-2)Gal(b1-3)[Fuc(a1-4)]GlcNAc(b1-2)Man(a1-3)[Fuc(a1-2)Gal(b1-3)[Fuc(a1-4)]GlcNAc(b1-2)Man(a1-6)]Man(b1-4)GlcNAc(b1-4)GlcNAc
# How it was run: as §1
# Fuc(a1-2)Gal(b1-4)Glc = biological target: Fuc(a1-2)Gal(b1-4)Glc
# How it was run: as §1
# Fuc(a1-2)Gal(b1-4)Glc6S = biological target: Fuc(a1-2)Gal(b1-4)Glc6S
# How it was run: as §1
# Fuc(a1-2)Gal(b1-4)GlcNAc = biological target: Fuc(a1-2)Gal(b1-4)GlcNAc
# How it was run: as §1
# [9] = biological target: Fuc(a1-2)Gal(b1-4)GlcNAc(b1-2)Man(a1-3)[Fuc(a1-2)Gal(b1-4)GlcNAc(b1-2)Man(a1-6)]Man(b1-4)GlcNAc(b1-4)GlcNAc
# How it was run: as §1
# [10] = biological target: Fuc(a1-2)Gal(b1-4)GlcNAc(b1-3)Gal(b1-4)GlcNAc
# How it was run: as §1
# [11] = biological target: Fuc(a1-2)Gal(b1-4)GlcNAc(b1-3)Gal(b1-4)GlcNAc(b1-3)Gal(b1-4)GlcNAc
# How it was run: as §1
# [12] = biological target: Fuc(a1-2)Gal(b1-4)GlcNAc6S
# How it was run: as §1
# [13] = biological target: Fuc(a1-2)Gal(b1-4)[Fuc(a1-3)]GlcNAc
# How it was run: as §1
# [14] = biological target: Fuc(a1-2)Gal(b1-4)[Fuc(a1-3)]GlcNAc(b1-2)Man(a1-3)[Fuc(a1-2)Gal(b1-4)[Fuc(a1-3)]GlcNAc(b1-2)Man(a1-6)]Man(b1-4)GlcNAc(b1-4)GlcNAc
# How it was run: as §1
# [15] = biological target: Fuc(a1-2)Gal(b1-4)[Fuc(a1-3)]GlcNAc(b1-3)Gal(b1-4)[Fuc(a1-3)]GlcNAc
# How it was run: as §1
# [16] = biological target: Fuc(a1-2)Gal(b1-4)[Fuc(a1-3)]GlcNAc(b1-3)Gal(b1-4)[Fuc(a1-3)]GlcNAc(b1-3)Gal(b1-4)[Fuc(a1-3)]GlcNAc
# How it was run: as §1
# Fuc(a1-2)Gal6S(b1-4)Glc = biological target: Fuc(a1-2)Gal6S(b1-4)Glc
# How it was run: as §1
# [17] = biological target: Fuc(a1-2)Gal6S(b1-4)Glc6S
# How it was run: as §1
# [18] = biological target: Fuc(a1-2)Gal6S(b1-4)GlcNAc
# How it was run: as §1
# Fuc(a1-2)[Gal(a1-3)]Gal = biological target: Fuc(a1-2)[Gal(a1-3)]Gal
# How it was run: as §1
# [19] = biological target: Fuc(a1-2)[Gal(a1-3)]Gal(b1-3)GlcNAc
# How it was run: as §1
# [20] = biological target: Fuc(a1-2)[Gal(a1-3)]Gal(b1-3)GlcNAc(b1-2)Man(a1-3)[Fuc(a1-2)[Gal(a1-3)]Gal(b1-3)GlcNAc(b1-2)Man(a1-6)]Man(b1-4)GlcNAc(b1-4)GlcNAc
# How it was run: as §1
# [21] = biological target: Fuc(a1-2)[Gal(a1-3)]Gal(b1-4)Glc
# How it was run: as §1
# [22] = biological target: Fuc(a1-2)[Gal(a1-3)]Gal(b1-4)GlcNAc
# How it was run: as §1
# [23] = biological target: Fuc(a1-2)[Gal(a1-3)]Gal(b1-4)GlcNAc(b1-2)Man(a1-3)[Fuc(a1-2)[Gal(a1-3)]Gal(b1-4)GlcNAc(b1-2)Man(a1-6)]Man(b1-4)GlcNAc(b1-4)GlcNAc
# How it was run: as §1
# [24] = biological target: Fuc(a1-2)[Gal(a1-3)]Gal(b1-4)[Fuc(a1-3)]GlcNAc
# How it was run: as §1
# [25] = biological target: Fuc(a1-2)[Gal(a1-4)]Gal(b1-4)GlcNAc
# How it was run: as §1
# [26] = biological target: Fuc(a1-2)[GalNAc(a1-3)]Gal
# How it was run: as §1
# [27] = biological target: Fuc(a1-2)[GalNAc(a1-3)]Gal(b1-3)GlcNAc
# How it was run: as §1
# [28] = biological target: Fuc(a1-2)[GalNAc(a1-3)]Gal(b1-3)GlcNAc(b1-2)Man(a1-3)[Fuc(a1-2)[GalNAc(a1-3)]Gal(b1-3)GlcNAc(b1-2)Man(a1-6)]Man(b1-4)GlcNAc(b1-4)GlcNAc
# How it was run: as §1
# [29] = biological target: Fuc(a1-2)[GalNAc(a1-3)]Gal(b1-4)Glc
# How it was run: as §1
# [30] = biological target: Fuc(a1-2)[GalNAc(a1-3)]Gal(b1-4)GlcNAc
# How it was run: as §1
# [31] = biological target: Fuc(a1-2)[GalNAc(a1-3)]Gal(b1-4)GlcNAc(b1-2)Man(a1-3)[GalNAc(a1-3)[Fuc(a1-2)]Gal(b1-4)GlcNAc(b1-2)Man(a1-6)]Man(b1-4)GlcNAc(b1-4)GlcNAc
# How it was run: as §1
# [32] = biological target: Fuc(a1-2)[GalNAc(a1-3)]Gal(b1-4)GlcNAc(b1-3)Gal(b1-4)GlcNAc
# How it was run: as §1
# [33] = biological target: Fuc(a1-2)[GalNAc(a1-3)]Gal(b1-4)GlcNAc(b1-3)Gal(b1-4)GlcNAc(b1-3)Gal(b1-4)GlcNAc
# How it was run: as §1
# [34] = biological target: Fuc(a1-2)[GalNAc(a1-3)]Gal(b1-4)[Fuc(a1-3)]GlcNAc
# How it was run: as §1
# [35] = biological target: Fuc(a1-2)[GalNAc(a1-4)]Gal(b1-4)GlcNAc
# How it was run: as §1
# [36] = biological target: Fuc(a1-2)[GalNAc(b1-3)]Gal
# How it was run: as §1
# Fuc(a1-3)GlcNAc = biological target: Fuc(a1-3)GlcNAc
# How it was run: as §1
binder,measurement,setting,value
"DC-SIGN (Canis lupus), XP_853402 (protein) AGLCRPCPWKWELFQESCYFFSQTQNTWKESISACQNLRAQLVIINSTEEQKFLKSWNTRNNQRTWIGLSDHHNEGSWKWVDNTPLQLSFWKEGEPNNHGDEDCVELYSDGWNDNRCSTENFWICKKPSSPCPGPGLNDIFEAQKIEWHE",glycan array binding signal (z-score),Fuc(a1-2)Gal,0.091
same,glycan array binding signal (z-score),Fuc(a1-2)Gal(b1-3)GalNAc,-0.087
same,glycan array binding signal (z-score),[1],-0.172
same,glycan array binding signal (z-score),[2],-0.352
same,glycan array binding signal (z-score),[3],-0.197
same,glycan array binding signal (z-score),Fuc(a1-2)Gal(b1-3)GlcNAc,-0.129
same,glycan array binding signal (z-score),[4],0.008
same,glycan array binding signal (z-score),[5],-0.259
same,glycan array binding signal (z-score),[6],-0.172
same,glycan array binding signal (z-score),[7],-0.059
same,glycan array binding signal (z-score),[8],0.148
same,glycan array binding signal (z-score),Fuc(a1-2)Gal(b1-4)Glc,-0.239
same,glycan array binding signal (z-score),Fuc(a1-2)Gal(b1-4)Glc6S,0.108
same,glycan array binding signal (z-score),Fuc(a1-2)Gal(b1-4)GlcNAc,-0.089
same,glycan array binding signal (z-score),[9],0.078
same,glycan array binding signal (z-score),[10],-0.196
same,glycan array binding signal (z-score),[11],0.003
same,glycan array binding signal (z-score),[12],-0.065
same,glycan array binding signal (z-score),[13],-0.091
same,glycan array binding signal (z-score),[14],-0.021
same,glycan array binding signal (z-score),[15],-0.206
same,glycan array binding signal (z-score),[16],0.056
same,glycan array binding signal (z-score),Fuc(a1-2)Gal6S(b1-4)Glc,-0.167
same,glycan array binding signal (z-score),[17],0.124
same,glycan array binding signal (z-score),[18],0.086
same,glycan array binding signal (z-score),Fuc(a1-2)[Gal(a1-3)]Gal,-0.256
same,glycan array binding signal (z-score),[19],-0.202
same,glycan array binding signal (z-score),[20],-0.24
same,glycan array binding signal (z-score),[21],0.002
same,glycan array binding signal (z-score),[22],-0.311
same,glycan array binding signal (z-score),[23],-0.305
same,glycan array binding signal (z-score),[24],0.634
same,glycan array binding signal (z-score),[25],-0.31
same,glycan array binding signal (z-score),[26],-0.164
same,glycan array binding signal (z-score),[27],-0.166
same,glycan array binding signal (z-score),[28],-0.276
same,glycan array binding signal (z-score),[29],-0.349
same,glycan array binding signal (z-score),[30],-0.137
same,glycan array binding signal (z-score),[31],-0.235
same,glycan array binding signal (z-score),[32],-0.245
same,glycan array binding signal (z-score),[33],0.504
same,glycan array binding signal (z-score),[34],0.358
same,glycan array binding signal (z-score),[35],-0.23
same,glycan array binding signal (z-score),[36],0.21
same,glycan array binding signal (z-score),Fuc(a1-3)GlcNAc,0.009
